Laboratory results published in ChEMBL document CHEMBL1201862, “PubChem BioAssay data set” (2004).
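All cell lines were grown in 96-well plates and treated with compound for 48 hours. GI50 marks 50% less growth.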 Activity calls are given as the source filed them. Cut-off read from the data, not from the text of the source: active = GI50 up to about 1.1 µM and inactive = higher.

These compounds were tested on NCI-H322M (assay: inhibition of tumour cell growth, NCI panel, 48 h).

How did the GI50 turn out when `O=[As](O)(O)c1ccc(Cc2ccc([As](=O)(O)O)cc2)cc1` was run?
The GI50 was inactive: 2.94 µM.

With `Nc1cccc2nsnc12` as the compound, how does the GI50 read?
The GI50 was inactive: > 100 µM.

For `N=C(N)SCc1cccc(-c2nc3ccccc3c(=O)o2)c1`, which GI50 is on record?
Its GI50 is inactive: > 100 µM.

Which GI50 does the source give for `O=C(O)CCCSc1ccccc1` here?
Its GI50 is inactive: > 100 µM.

For `CC(N/N=C(\S)N1CCN(c2ccccn2)CC1)c1nccc2ccccc12` (stereo unspecified), which GI50 is on record?
Its GI50 is active: 0.527 µM.

For `CC12CCC(=O)C=C1CCC1C2C(O)CC2(C)C(c3csc(N)n3)CCC12.O=S(=O)(O)c1ccc(Br)cc1` (stereo unspecified), which GI50 is on record?
Its GI50 is inactive: > 100 µM.

`CC(C)c1ccc(C(c2c(O)oc3ccccc3c2=O)c2c(O)oc3ccccc3c2=O)cc1` was tested. Which GI50 did it give?
The GI50 was inactive: 19.1 µM.

For `Cc1cc(C)c(C)c(-n2[nH]c(=O)n(C)c2=O)c1C`, which GI50 is on record?
The GI50 was inactive: > 100 µM.

Which GI50 does the source give for `CC(C)(C)/C(=N\Nc1nc2ccccc2[nH]1)c1ccccn1` here?
Its GI50 is inactive: 46.7 µM.

Which GI50 does the source give for `CC(=O)OC1c2ccccc2CCCCCCC12OCCO2` (stereo unspecified) here?
Its GI50 is inactive: > 100 µM.

For `O=C(O)C1CCCN1Cc1c[nH]c2ccccc12` (stereo unspecified), which GI50 is on record?
The GI50 was inactive: > 100 µM.

For `CCOC(=O)c1ccc(Nc2nc3ccc(C(F)(F)F)cc3nc2C(=O)OCC)cc1`, which GI50 is on record?
Its GI50 is inactive: > 100 µM.

How did the GI50 turn out when `COc1cc([C@H]2c3cc4c(cc3[C@H](NCc3ccc(F)cc3)C3COC(=O)[C@H]32)OCO4)cc(OC)c1O` (stereo partly specified) was run?
Its GI50 is inactive: 37.1 µM.

Which GI50 does the source give for `C=C(C)C1Cc2c(cc(O)c3c(=O)c4c(oc23)C(O)Oc2cc(OC)c(OC)cc2-4)O1` (stereo unspecified) here?
The GI50 was inactive: > 10 µM.

With `COc1ncnc2c(NC3OC(CO)C(O)C3O)ncnc12` (stereo unspecified) as the compound, how does the GI50 read?
Its GI50 is active: 0.123 µM.

`O=C1SC(c2ccccc2)(c2ccccc2)c2ccccc21` was tested. Which GI50 did it give?
Its GI50 is inactive: > 100 µM.

`O=C(Nc1nc2ncn(CCOC(=O)c3ccccc3)c2c(=S)[nH]1)c1ccccc1` was tested. Which GI50 did it give?
Its GI50 is inactive: > 100 µM.

`CCC(NC1=NCCO1)c1cccs1` (stereo unspecified) was tested. Which GI50 did it give?
The GI50 was inactive: 17.6 µM.

`C=C(Nc1nc2ccc(C)cc2s1)C(=O)C(CC)C(=O)C(CC)CC1C(=O)NC(=O)NC1=O` (stereo unspecified) was tested. Which GI50 did it give?
The GI50 was inactive: > 100 µM.

`N#C/C(=C1\OC(=N)C(c2ccccc2)C1=O)c1ccccc1` (stereo unspecified) was tested. Which GI50 did it give?
The GI50 was inactive: > 74.5 µM.

For `O=C1OCCC[C@H]2O[C@@H](COCc3ccccc3)C[C@@H]12`, which GI50 is on record?
Its GI50 is inactive: > 100 µM.

How did the GI50 turn out when `O=c1c(-c2ccccc2)c2oc(c1-c1ccccc1)CSCc1cccc(c1)CSC2` was run?
The GI50 was inactive: 32 µM.

Which GI50 does the source give for `N#Cc1c(-c2ccc(Cl)cc2)c2c([nH]c1=O)-c1cc([N+](=O)[O-])ccc1CCC2` here?
Its GI50 is inactive: 19.6 µM.

With `Clc1nc(Cl)c(-c2ccccc2)c(Cl)n1` as the compound, how does the GI50 read?
The GI50 was inactive: 13.5 µM.

Which GI50 does the source give for `Cc1ccc(S(=O)(=O)NC(=O)NC(CO)C(=O)O)cc1` (stereo unspecified) here?
Its GI50 is inactive: > 100 µM.

For `C=CC(O)C#Cc1cnc(OC)nc1OC` (stereo unspecified), which GI50 is on record?
The GI50 was inactive: > 100 µM.

Which GI50 does the source give for `CC1=C(/C(C)=N/NS(=O)(=O)c2ccc(C)cc2)Sc2ccccc2N1` here?
Its GI50 is inactive: > 100 µM.

Which GI50 does the source give for `O=c1ccc(=O)c2c1c1[nH]c3ccccc3c1c1c(=O)c3ccccc3c(=O)c21` here?
Its GI50 is inactive: > 10 µM.

With `O=C(CSC(=S)N1CCCCC1)Nc1nc2c(s1)CCCC2` as the compound, how does the GI50 read?
The GI50 was inactive: 79.3 µM.

With `C[C@]12CC[C@@H]3c4ccc(OCCN5CCCC5)cc4CC[C@H]3[C@@H]1CCC2=O` as the compound, how does the GI50 read?
The GI50 was inactive: > 100 µM.

`CC[C@@]1(O)C(=O)OCc2c1c(Cl)c1n(c2=O)Cc2cc3ccccc3nc2-1` was tested. Which GI50 did it give?
Its GI50 is inactive: 3.72 µM.

Which GI50 does the source give for `CC(c1ccc(Br)cc1)C(C(=O)O)C(=O)O` (stereo unspecified) here?
Its GI50 is inactive: > 100 µM.

`C=C(CN(C)C)C(=O)c1ccccc1C` was tested. Which GI50 did it give?
Its GI50 is inactive: > 100 µM.

For `Cc1ccsc1/C=N/Nc1nncc2ccccc12`, which GI50 is on record?
Its GI50 is inactive: > 100 µM.

How did the GI50 turn out when `COC(=O)C#Cc1ccc([N+](=O)[O-])cc1` was run?
The GI50 was inactive: 3.61 µM.

How did the GI50 turn out when `Cc1cnoc1/N=C1\C=C(O)C(=O)c2ccccc21` was run?
The GI50 was inactive: 29.9 µM.

How did the GI50 turn out when `O=C(c1ccccc1)c1ccc2n[se]nc2c1` was run?
The GI50 was inactive: 56.1 µM.

Which GI50 does the source give for `CC1(C)c2ccccc2C(C)(C)C(C(=O)Nc2ccccc2)C1C(=O)O` (stereo unspecified) here?
Its GI50 is inactive: > 100 µM.

For `N#C/C(=C1\SC(/N=N/c2ccc(Cl)cc2)C(=O)N1c1ccccc1)c1nc2ccccc2[nH]1` (stereo unspecified), which GI50 is on record?
Its GI50 is inactive: 30.3 µM.

Which GI50 does the source give for `CC(=O)n1c2ccc(Br)cc2c2nc3ccccc3nc21` here?
Its GI50 is inactive: > 100 µM.

For `Cc1ccc2c(c1)Nc1cc(C(F)(F)F)ccc1[PH]2=O` (stereo unspecified), which GI50 is on record?
The GI50 was inactive: 63.7 µM.

`CCCCCc1cc(CCCC)sc1-c1ccco1` was tested. Which GI50 did it give?
The GI50 was inactive: > 100 µM.

For `O=C1C[C@H]2[C@@H](O1)[C@@H](O)CN1C(=O)c3ccccc3[C@H]21`, which GI50 is on record?
The GI50 was inactive: > 100 µM.

`COc1cc2c(cc1OCCCOc1cc(-c3ccc(F)cc3)nc(C)n1)N=C[C@@H]1CCCN1C2=O` was tested. Which GI50 did it give?
The GI50 was inactive: 26.5 µM.

Which GI50 does the source give for `CC(=O)Nc1cc2c(s1)CCC1CC(=O)NN=C21` (stereo unspecified) here?
The GI50 was inactive: > 100 µM.

Which GI50 does the source give for `C=C(CN(C)C)C(=O)c1ccc(C)cc1C` here?
The GI50 was inactive: 28.2 µM.

How did the GI50 turn out when `CCOC(=O)Nc1[nH]cc(-c2ccccc2)c1C#N` was run?
Its GI50 is inactive: > 100 µM.

For `CCn1c2c(c3ccccc31)C(c1ccccc1)CC1C(=O)N(c3ccccc3)C(=O)C21` (stereo unspecified), which GI50 is on record?
The GI50 was inactive: > 100 µM.

How did the GI50 turn out when `O=C(O/N=C1/CCCC/C1=C\c1ccccc1)c1ccc(Cl)cc1` was run?
The GI50 was inactive: > 100 µM.

For `O=C(O)c1cccc(S(=O)(=O)NN2C(=O)CSC2c2ccc(Cl)cc2Cl)c1` (stereo unspecified), which GI50 is on record?
The GI50 was inactive: > 100 µM.

With `COc1c(OC)c(N)c2cc(C)c(=O)c(C)cc2c1N` as the compound, how does the GI50 read?
Its GI50 is inactive: > 100 µM.

For `C#CCOC(=O)C(N)CCCNC(=N)N` (stereo unspecified), which GI50 is on record?
The GI50 was inactive: > 100 µM.

How did the GI50 turn out when `NC(CCc1nc(-c2cccc([N+](=O)[O-])c2)cs1)C(=O)O` (stereo unspecified) was run?
The GI50 was inactive: > 100 µM.

With `NNC(=O)C(=O)N/N=C(\CCC(=O)Nc1ccc(Cl)cc1)Cc1nc2ccccc2s1` as the compound, how does the GI50 read?
The GI50 was inactive: > 100 µM.

Which GI50 does the source give for `Cc1ccc([S+]([O-])C(C)C(Cl)c2ccccc2)cc1` (stereo unspecified) here?
The GI50 was inactive: > 100 µM.

Which GI50 does the source give for `Cc1ccc(S(=O)(=O)[C@@H](Cl)[C@H]2N=C(Cl)NN=C2c2ccccc2)cc1` here?
The GI50 was inactive: 35.2 µM.

`Cc1ccc(Oc2ccc(C(=O)c3cccc(C(=O)c4ccc(Oc5ccc(C)cc5)cc4)n3)cc2)cc1` was tested. Which GI50 did it give?
Its GI50 is inactive: > 100 µM.

`N#C/C(=C/c1ccsc1)C(=O)c1ccccc1` was tested. Which GI50 did it give?
Its GI50 is inactive: > 100 µM.

Which GI50 does the source give for `COC(=O)c1cc2c(c3c1CC(Cc1ccccc1)C3=O)CCC2` (stereo unspecified) here?
Its GI50 is inactive: 81.3 µM.

How did the GI50 turn out when `COc1cc(O)c2c(c1)OCC1(Cc3cc(OC)c(OC)cc31)C2=O` (stereo unspecified) was run?
Its GI50 is inactive: > 100 µM.

How did the GI50 turn out when `CCCCN(CCCC)C(=O)C(=O)CC(=O)c1ccc(Br)cc1` was run?
The GI50 was inactive: > 100 µM.

For `C1=CC=C2NCCSCC/N=C3/C=CC=CC=C3NCCSCC/N=C\2C=C1`, which GI50 is on record?
Its GI50 is inactive: > 100 µM.

Which GI50 does the source give for `Cc1cc2nc(N3C(=O)/C(=C/c4ccc(N(C)C)cc4)N=C3c3ccccc3)sc2cc1C` here?
The GI50 was inactive: 27.7 µM.

With `Oc1cc(N2CCCC2)ccc1/C=N/N1C(=S)N(c2ccccc2)C(=N\c2ccccc2)/C1=N/c1ccccc1` as the compound, how does the GI50 read?
The GI50 was inactive: > 100 µM.

Which GI50 does the source give for `O/N=N\c1nc(-c2cccnc2)nc2ccccc12` here?
Its GI50 is inactive: > 100 µM.

With `C[C@@H](NC1CCC[C@@H]1O)c1ccccc1` (stereo partly specified) as the compound, how does the GI50 read?
Its GI50 is inactive: > 100 µM.

For `COc1ccc(NC(=O)C(=O)Cc2nc3ccc([N+](=O)[O-])cc3nc2O)c(OC)c1`, which GI50 is on record?
Its GI50 is inactive: > 100 µM.

With `Oc1nc(-c2cccc(F)c2)nc2ccccc12` as the compound, how does the GI50 read?
The GI50 was inactive: 43.2 µM.

`N/C(=N\N/C=C1\C=Nc2cc(C(F)(F)F)ccc2C1=O)NO` was tested. Which GI50 did it give?
The GI50 was inactive: 4.66 µM.

With `CN(C)CCC1(C2=CCCC2)CC/C(=C\c2ccc3c(c2)OCO3)C1=O` (stereo unspecified) as the compound, how does the GI50 read?
Its GI50 is inactive: 15.8 µM.

Which GI50 does the source give for `O=[N+]([O-])c1oc2ccc3ccccc3c2c1CCO` here?
The GI50 was inactive: 2.43 µM.
